The results in this text go back to the GPR68 mutational scans of Howard et al. (2025).

The labels stand for the following.
B1: GPR68, Q15743 (parent)
chain: MGNITADNSSMSCTIDHTIHQTLAPVVYVTVLVVGFPANCLSLYFGYLQIKARNELGVYLCNLTVADLFYICSLPFWLQYVLQHDNWSHGDLSCQVCGILLYENIYISVGFLCCISVDRYLAVAHPFRFHQFRTLKAAVGVSVVIWAKELLTSIYFLMHEEVIEDENQHRVCFEHYPIQAWQRAINYYRFLVGFLFPICLLLASYQGILRAVRRSHGTQKSRKDQIQRLVLSTVVIFLACFLPYHVLLLVRSVWEASCDFAKGVFNAYHFSLLLTSFNCVADPVLYCFVSETTHRDLARLRGACLAFLTCSRTGRAREAYPLGAPEASGKSGAQGEEPELLTKLHPAFQTPNSPGSGGFPTGRLA

Variants of B1 are the subject of series [1]. Put plainly: cAMP reporter score (Enrich2 score, wild type = 0); higher = more signal; HEK293T, FACS bins.
The variants in series [2] derive from B1. Nature of the series: surface expression score (Enrich2 score, wild type = 0); higher = more signal; HEK293T, FACS bins.

Scores with a large standard error are left out. Two further conditions of the source, in which the scores hardly spread, are not listed. In variant names, del marks residues removed and ins residues inserted between the two positions. For part of these data: The data file names ogerin without a concentration.

For D16K, the cAMP reporter score in series [1] (pH 5.5) was determined as 1.08; in series [1] (pH 6), 0.4; in series [1] (pH 6, modulator: ogerin), 0.764; in series [1] (pH 6.5, modulator: ogerin), 0.436. In addition, the surface expression score in series [2] was 1.58.

In the case of D16R, the cAMP reporter score in series [1] (pH 5.5) was 0.299; in series [1] (pH 6), 0.147; in series [1] (pH 6, modulator: ogerin), -0.064; in series [1] (pH 6.5, modulator: ogerin), -0.632. The surface expression score in series [2] stood at 0.428.

As to D16M, the cAMP reporter score in series [1] (pH 5.5) was 0.777; in series [1] (pH 6), -0.16; in series [1] (pH 6, modulator: ogerin), 0.29; in series [1] (pH 6.5, modulator: ogerin) it was -0.346. Moreover, in series [2], the surface expression score amounted to 1.27.

Regarding D16A, the cAMP reporter score was 0.73 in series [1] (pH 5.5); -0.013 in series [1] (pH 6); 0.54 in series [1] (pH 6, modulator: ogerin); -0.41 in series [1] (pH 6.5, modulator: ogerin). Moreover, the surface expression score in series [2] stood at 0.68.

Consider D16L, for which the cAMP reporter score in series [1] (pH 5.5) is 0.088; in series [1] (pH 6), -0.738; in series [1] (pH 6, modulator: ogerin), -0.25; in series [1] (pH 6.5, modulator: ogerin), -0.73. Also, the surface expression score in series [2] is -0.008.

With D16Q, the cAMP reporter score was -0.352 in series [1] (pH 5.5); -0.306 in series [1] (pH 6); 0.145 in series [1] (pH 6, modulator: ogerin); 0.483 in series [1] (pH 6.5, modulator: ogerin). Also, the surface expression score in series [2] was 0.182.

D16G: the cAMP reporter score in series [1] (pH 5.5) is -0.119; in series [1] (pH 6), -0.459; in series [1] (pH 6, modulator: ogerin), -0.004; in series [1] (pH 6.5, modulator: ogerin) it was -0.844. In addition, in series [2], the surface expression score came out at 1.06.

As for D16H, the cAMP reporter score in series [1] (pH 5.5) is 0.699; in series [1] (pH 6, modulator: ogerin), -0.004; in series [1] (pH 6.5, modulator: ogerin) it was -0.334.

Consider D16I, for which the cAMP reporter score is 0.771 in series [1] (pH 5.5); -0.254 in series [1] (pH 6); 0.163 in series [1] (pH 6, modulator: ogerin); 0.307 in series [1] (pH 6.5, modulator: ogerin). For the same variant, in series [2], the surface expression score was found to be 0.565.

On to D16N, for which the cAMP reporter score in series [1] (pH 5.5) was 0.242; in series [1] (pH 6), 0.108; in series [1] (pH 6, modulator: ogerin), 0.219; in series [1] (pH 6.5, modulator: ogerin), -0.281. In series [2], the surface expression score was determined as 0.668.

Regarding D16C, the cAMP reporter score was 0.05 in series [1] (pH 5.5); -0.385 in series [1] (pH 6); -0.725 in series [1] (pH 6, modulator: ogerin); -1.09 in series [1] (pH 6.5, modulator: ogerin). Moreover, the surface expression score in series [2] is -0.593.

Regarding D16E, the cAMP reporter score in series [1] (pH 5.5) was 0.269; in series [1] (pH 6), -0.068; in series [1] (pH 6, modulator: ogerin), 0.122; in series [1] (pH 6.5, modulator: ogerin) it was 0.485. For the same variant, the surface expression score in series [2] was -0.522.

As to D16F, the cAMP reporter score in series [1] (pH 5.5) is -0.347; in series [1] (pH 6), -0.487; in series [1] (pH 6, modulator: ogerin) it was -0.717; in series [1] (pH 6.5, modulator: ogerin), -1.12. The surface expression score in series [2] was -0.162.

For D16P, the cAMP reporter score in series [1] (pH 5.5) was 0.346; in series [1] (pH 6) it was 0.64; in series [1] (pH 6, modulator: ogerin) it was -0.079; in series [1] (pH 6.5, modulator: ogerin), -0.004. Also, the surface expression score in series [2] came out at 0.342.

With I15_D16insGS, the cAMP reporter score in series [1] (pH 5.5) was 1.68; in series [1] (pH 6) it was -0.541; in series [1] (pH 6, modulator: ogerin), 1.57; in series [1] (pH 6.5, modulator: ogerin) it was 0.315. The surface expression score in series [2] turned out to be 0.457.

For the variant S12_C13insGSG, the cAMP reporter score in series [1] (pH 5.5) was 0.119; in series [1] (pH 6) it was -0.246; in series [1] (pH 6, modulator: ogerin), 0.157; in series [1] (pH 6.5, modulator: ogerin), -0.134. Besides, the surface expression score in series [2] is 0.057.

As to T14_I15del, the cAMP reporter score in series [1] (pH 5.5) is -1.66; in series [1] (pH 6) it was -0.517; in series [1] (pH 6, modulator: ogerin), -1.1; in series [1] (pH 6.5, modulator: ogerin), -0.76. Further, the surface expression score in series [2] was -1.68.

As for I15_H17del, the cAMP reporter score in series [1] (pH 5.5) is -1.28; in series [1] (pH 6), -0.802; in series [1] (pH 6, modulator: ogerin), -1.27; in series [1] (pH 6.5, modulator: ogerin) it was -1.05. Moreover, the surface expression score in series [2] was -0.891.

Take T14_D16del: the cAMP reporter score in series [1] (pH 5.5) is -1.56; in series [1] (pH 6), -0.763; in series [1] (pH 6, modulator: ogerin), -1.77; in series [1] (pH 6.5, modulator: ogerin), -1.3. Moreover, in series [2], the surface expression score was -1.52.

With C13del, the cAMP reporter score in series [1] (pH 5.5) was -1.64; in series [1] (pH 6), -0.163; in series [1] (pH 6, modulator: ogerin) it was -1.39; in series [1] (pH 6.5, modulator: ogerin), -0.983. Also, the surface expression score in series [2] was -1.48.

Take S12_C13insGS: the cAMP reporter score in series [1] (pH 5.5) is 0.32; in series [1] (pH 6), -0.261; in series [1] (pH 6, modulator: ogerin) it was 1.13; in series [1] (pH 6.5, modulator: ogerin), -0.198. Moreover, the surface expression score in series [2] amounted to 1.42.

Take S12del: the cAMP reporter score in series [1] (pH 5.5) was -0.165; in series [1] (pH 6), -0.077; in series [1] (pH 6, modulator: ogerin) it was -0.463; in series [1] (pH 6.5, modulator: ogerin), -0.004. Further, the surface expression score in series [2] is -0.714.

For S12_T14del, the cAMP reporter score in series [1] (pH 5.5) is -1.47; in series [1] (pH 6), -1.38; in series [1] (pH 6, modulator: ogerin), -1.94; in series [1] (pH 6.5, modulator: ogerin), -0.815. In addition, the surface expression score in series [2] was -1.78.

With S12_C13insG, the cAMP reporter score in series [1] (pH 5.5) was 0.967; in series [1] (pH 6), -0.083; in series [1] (pH 6, modulator: ogerin), 0.797; in series [1] (pH 6.5, modulator: ogerin), -0.109. Further, the surface expression score in series [2] came to 0.797.

Consider T14R, for which the cAMP reporter score was 0.416 in series [1] (pH 5.5); -0.343 in series [1] (pH 6); 0.317 in series [1] (pH 6, modulator: ogerin); 0.048 in series [1] (pH 6.5, modulator: ogerin). For the same variant, the surface expression score in series [2] is 0.114.

For the variant T14D, the cAMP reporter score in series [1] (pH 5.5) was 1.24; in series [1] (pH 6), -0.127; in series [1] (pH 6, modulator: ogerin), 0.873; in series [1] (pH 6.5, modulator: ogerin), 0.01. Moreover, the surface expression score in series [2] came out at 1.77.

T14V: the cAMP reporter score in series [1] (pH 5.5) was 0.407; in series [1] (pH 6), 0.511; in series [1] (pH 6, modulator: ogerin), 0.772; in series [1] (pH 6.5, modulator: ogerin), 0.408. In addition, the surface expression score in series [2] stood at 0.918.

With T14M, the cAMP reporter score in series [1] (pH 5.5) is -0.358; in series [1] (pH 6), -1.21; in series [1] (pH 6, modulator: ogerin), -0.377; in series [1] (pH 6.5, modulator: ogerin), -0.856. Moreover, the surface expression score in series [2] is -0.611.

T14C: the cAMP reporter score in series [1] (pH 5.5) is 1.14; in series [1] (pH 6), -0.093; in series [1] (pH 6, modulator: ogerin), 0.49; in series [1] (pH 6.5, modulator: ogerin), 0.021. Further, the surface expression score in series [2] turned out to be 0.371.

Regarding T14P, the cAMP reporter score is 0.076 in series [1] (pH 5.5); -0.379 in series [1] (pH 6); 0.098 in series [1] (pH 6, modulator: ogerin); -0.386 in series [1] (pH 6.5, modulator: ogerin). In series [2], the surface expression score came out at 0.087.

With T14N, the cAMP reporter score in series [1] (pH 5.5) stood at 1; in series [1] (pH 6) it was 0.37; in series [1] (pH 6, modulator: ogerin), 0.996; in series [1] (pH 6.5, modulator: ogerin) it was 0.827. The surface expression score in series [2] was determined as 0.47.
